Cell count data for 18 compounds are collected here from the supplement of paper PMC4604168 (melanoma cell lines).

The list shows a part of the results. Repeats are few or missing, and single values can be far off.
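Note: cells treated in 1,536-well plates, then fixed and DAPI-stained, with nuclei counted from automated high-throughput microscope images.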

In this test the test system is COLO829. Description: cell count relative to DMSO control; melanoma cells; higher = more viable cells. Particulars: library dose: standard library concentration; 72 h; first compound 2 µM.
`Cn1sc(=O)n(Cc2ccccc2)c1=O` + C=CCn1c(=O)c2cnc(Nc3ccc(N4CCN(C)CC4)cc3)nc2n1-c1cccc(C(C)(C)O)n1 [MK1775] (partner dose 0.1 µM) had a cell count of 106%.

`C[C@@H](N)c1ccc(C(=O)Nc2ccnc3[nH]ccc23)cc1` + CCN(CC)CCNC(=O)c1c(C)[nH]c(/C=C2\C(=O)Nc3ccc(F)cc32)c1C [sunitinib] (partner dose 2 µM) had a cell count of 129%.

In turn, `CCCCCCCCCCCCCCCCCCOP(=O)([O-])OC1CC[N+](C)(C)CC1` [Perifosine] + Cn1cc(/C=C2\C(=O)Nc3cccnc32)c2ccccc21 [GW441756] (partner dose 2 µM) displayed a cell count of 89.9%.

`Cn1sc(=O)n(Cc2ccccc2)c1=O` + COc1cc2ncnc(Nc3ccc(Oc4ccccc4)cc3)c2cc1OC [SrcI1] (partner dose 10 µM) registered a cell count of 113%.

Take `Cn1sc(=O)n(Cc2ccccc2)c1=O` + O=C(O)[C@@H]1[O][Sb](=[O])([O][Sb]2(=[O])[O][C@H]([C@H](O)CO)[C@H](O)[C@H](C(=O)O)[O]2)[O][C@H]([C@H](O)CO)[C@@H]1O [stibogluconate] (partner dose 10 µM): the cell count was found to be 91.9%.

Compound `C[C@@H](N)c1ccc(C(=O)Nc2ccnc3[nH]ccc23)cc1` + O=C(O)[C@@H]1[O][Sb](=[O])([O][Sb]2(=[O])[O][C@H]([C@H](O)CO)[C@H](O)[C@H](C(=O)O)[O]2)[O][C@H]([C@H](O)CO)[C@@H]1O [stibogluconate] (partner dose 10 µM) showed a cell count of 104%.

As for `CCCCCCCCCCCCCCCCCCOP(=O)([O-])OC1CC[N+](C)(C)CC1` [Perifosine] + Cc1cc([N+](=O)[O-])ccc1NS(=O)(=O)c1cc(Cl)ccc1Cl [FH535] (partner dose 5 µM), the cell count was 70.2%.

Consider `Cn1sc(=O)n(Cc2ccccc2)c1=O` + CCc1ccc(CCOc2ccc(CC3SC(=O)NC3=O)cc2)nc1 [pioglitazone] (partner dose 10 µM), for which the cell count is 95.5%.

`CCCCCCCCCCCCCCCCCCOP(=O)([O-])OC1CC[N+](C)(C)CC1` [Perifosine] + Oc1nc(-c2ccc(C(F)(F)F)cc2)nc2c1CSCC2 [XAV939] (partner dose 10 µM) yielded a cell count of 105%.

In turn, `CCCCCCCCCCCCCCCCCCOP(=O)([O-])OC1CC[N+](C)(C)CC1` [Perifosine] + Cc1ccc(Nc2nccc(N(C)c3ccc4c(C)n(C)nc4c3)n2)cc1S(N)(=O)=O [Pazopanib] (partner dose 2 µM) came in with a cell count of 70%.

For `CCCCCCCCCCCCCCCCCCOP(=O)([O-])OC1CC[N+](C)(C)CC1` [Perifosine] + c1cc(-c2cnn3cc(-c4ccc(OCCN5CCCCC5)cc4)cnc23)ccn1 [Dorsomorphin] (partner dose 2 µM), the cell count worked out at 86.9%.

For `C[C@@H](N)c1ccc(C(=O)Nc2ccnc3[nH]ccc23)cc1` + COc1cc2ncnc(Nc3ccc(Oc4ccccc4)cc3)c2cc1OC [SrcI1] (partner dose 10 µM), the cell count is 78.4%.

Consider `C[C@@H](N)c1ccc(C(=O)Nc2ccnc3[nH]ccc23)cc1` + COCC[n+]1c2c(n(Cc3cnccn3)c1C)C(=O)c1ccccc1C2=O [YM155] (partner dose 0.002 µM), for which the cell count worked out at 96.7%.

With `CCCCCCCCCCCCCCCCCCOP(=O)([O-])OC1CC[N+](C)(C)CC1` [Perifosine] + O=c1cc(-c2cccc3c2Sc2ccccc2S3)oc(N2CCOCC2)c1 [KU55933] (partner dose 5 µM), the cell count was 83.1%.

As for `C[C@@H](N)c1ccc(C(=O)Nc2ccnc3[nH]ccc23)cc1` + Cc1cc([N+](=O)[O-])ccc1NS(=O)(=O)c1cc(Cl)ccc1Cl [FH535] (partner dose 5 µM), the cell count was 69.7%.

The compound `CCCCCCCCCCCCCCCCCCOP(=O)([O-])OC1CC[N+](C)(C)CC1` [Perifosine] + CCN(CC)CCCCNc1ncc2cc(-c3cc(OC)cc(OC)c3)c(NC(=O)NC(C)(C)C)nc2n1 [PD173074] (partner dose 0.5 µM) gave a cell count of 104%.

Take `C[C@@H](N)c1ccc(C(=O)Nc2ccnc3[nH]ccc23)cc1` + c1cc(-c2cnn3cc(-c4ccc(OCCN5CCCCC5)cc4)cnc23)ccn1 [Dorsomorphin] (partner dose 2 µM): the cell count is 86.3%.

`C[C@@H](N)c1ccc(C(=O)Nc2ccnc3[nH]ccc23)cc1` + Nc1nc(F)nc2c1ncn2[C@@H]1O[C@H](CO)[C@@H](O)[C@@H]1O [fludarabine] (partner dose 1 µM): the cell count was 120%.
